# Results as given in the supplement of paper PMC8728848.
# The list shows a part of the results.
# Key:
# Experiment in all cases: glycan array binding signal (z-score within array); higher = stronger binding
# Conditions in all cases: glycan notation: IUPAC condensed, linker removed
# [1] = target: Fuc(a1-2)Gal(b1-4)[Fuc(a1-3)]GlcNAc(b1-2)Man(a1-3)[Fuc(a1-2)Gal(b1-4)[Fuc(a1-3)]GlcNAc(b1-2)Man(a1-6)]Man(b1-4)GlcNAc(b1-4)[Fuc(a1-6)]GlcNAc
# Summary of the method: (§1)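 From the Consortium for Functional Glycomics database, 3228 arrays were curated, keeping only those whose protein sequence was available. Binding is given as a within-array Z-score averaged across arrays sharing a protein sequence and across linkers. Negative Z-scores can be read as non-binding.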
# [2] = target: Fuc(a1-2)Gal(b1-4)[Fuc(a1-3)]GlcNAc(b1-2)[Fuc(a1-2)Gal(b1-4)[Fuc(a1-3)]GlcNAc(b1-4)]Man(a1-3)[Fuc(a1-2)Gal(b1-4)[Fuc(a1-3)]GlcNAc(b1-2)Man(a1-6)]Man(b1-4)GlcNAc(b1-4)GlcNAc
# Summary of the method: as §1
# [3] = target: Fuc(a1-2)Gal(b1-4)[Fuc(a1-3)]GlcNAc(b1-3)Gal(b1-4)[Fuc(a1-3)]GlcNAc
# Summary of the method: as §1
# [4] = target: Fuc(a1-2)Gal(b1-4)[Fuc(a1-3)]GlcNAc(b1-3)Gal(b1-4)[Fuc(a1-3)]GlcNAc(b1-3)Gal(b1-4)[Fuc(a1-3)]GlcNAc
# Summary of the method: as §1
# [5] = target: Fuc(a1-2)Gal(b1-4)[Fuc(a1-3)]GlcNAc(b1-3)GalNAc
# Summary of the method: as §1
# [6] = target: Fuc(a1-2)Gal(b1-4)[Fuc(a1-3)]GlcNAc(b1-3)[Neu5Ac(a2-6)Gal(b1-4)GlcNAc(b1-6)]Gal(b1-4)Glc
# Summary of the method: as §1
# [7] = target: Fuc(a1-2)Gal3S(b1-4)GlcNAc
# Summary of the method: as §1
# [8] = target: Fuc(a1-2)Gal6S(b1-3)GlcNAc
# Summary of the method: as §1
# [9] = target: Fuc(a1-2)Gal6S(b1-3)GlcNAc6S
# Summary of the method: as §1
# Fuc(a1-2)Gal6S(b1-4)Glc = target: Fuc(a1-2)Gal6S(b1-4)Glc
# Summary of the method: as §1
# [10] = target: Fuc(a1-2)Gal6S(b1-4)Glc6S
# Summary of the method: as §1
# Fuc(a1-2)[Gal(a1-3)]Gal = target: Fuc(a1-2)[Gal(a1-3)]Gal
# Summary of the method: as §1
# [11] = target: Fuc(a1-2)[Gal(a1-3)]Gal(b1-3)GalNAc
# Summary of the method: as §1
# [12] = target: Fuc(a1-2)[Gal(a1-3)]Gal(b1-3)GalNAc(b1-3)Gal(a1-4)Gal(b1-4)Glc
# Summary of the method: as §1
# [13] = target: Fuc(a1-2)[Gal(a1-3)]Gal(b1-3)GlcNAc
# Summary of the method: as §1
# [14] = target: Fuc(a1-2)[Gal(a1-3)]Gal(b1-3)GlcNAc(b1-2)Man(a1-3)[Fuc(a1-2)[Gal(a1-3)]Gal(b1-3)GlcNAc(b1-2)Man(a1-6)]Man(b1-4)GlcNAc(b1-4)GlcNAc
# Summary of the method: as §1
# [15] = target: Fuc(a1-2)[Gal(a1-3)]Gal(b1-3)GlcNAc(b1-2)Man(a1-3)[Fuc(a1-2)[Gal(a1-3)]Gal(b1-3)GlcNAc(b1-2)Man(a1-6)]Man(b1-4)GlcNAc(b1-4)[Fuc(a1-6)]GlcNAc
# Summary of the method: as §1
# [16] = target: Fuc(a1-2)[Gal(a1-3)]Gal(b1-3)GlcNAc(b1-3)GalNAc
# Summary of the method: as §1
# [17] = target: Fuc(a1-2)[Gal(a1-3)]Gal(b1-3)GlcNAc(b1-6)GalNAc
# Summary of the method: as §1
# [18] = target: Fuc(a1-2)[Gal(a1-3)]Gal(b1-4)Glc
# Summary of the method: as §1
# [19] = target: Fuc(a1-2)[Gal(a1-3)]Gal(b1-4)GlcNAc
# Summary of the method: as §1
# [20] = target: Fuc(a1-2)[Gal(a1-3)]Gal(b1-4)GlcNAc(b1-2)Man
# Summary of the method: as §1
# [21] = target: Fuc(a1-2)[Gal(a1-3)]Gal(b1-4)GlcNAc(b1-2)Man(a1-3)[Fuc(a1-2)[Gal(a1-3)]Gal(b1-4)GlcNAc(b1-2)Man(a1-6)]Man(b1-4)GlcNAc(b1-4)GlcNAc
# Summary of the method: as §1
# [22] = target: Fuc(a1-2)[Gal(a1-3)]Gal(b1-4)GlcNAc(b1-2)Man(a1-3)[Fuc(a1-2)[Gal(a1-3)]Gal(b1-4)GlcNAc(b1-2)Man(a1-6)]Man(b1-4)GlcNAc(b1-4)[Fuc(a1-6)]GlcNAc
# Summary of the method: as §1
# [23] = target: Fuc(a1-2)[Gal(a1-3)]Gal(b1-4)GlcNAc(b1-3)GalNAc
# Summary of the method: as §1
# [24] = target: Fuc(a1-2)[Gal(a1-3)]Gal(b1-4)GlcNAc(b1-3)[Fuc(a1-2)[Gal(a1-3)]Gal(b1-4)GlcNAc(b1-6)]GalNAc
# Summary of the method: as §1
# [25] = target: Fuc(a1-2)[Gal(a1-3)]Gal(b1-4)GlcNAc(b1-6)GalNAc
# Summary of the method: as §1
# [26] = target: Fuc(a1-2)[Gal(a1-3)]Gal(b1-4)[Fuc(a1-3)]Glc
# Summary of the method: as §1
# [27] = target: Fuc(a1-2)[Gal(a1-3)]Gal(b1-4)[Fuc(a1-3)]GlcNAc
# Summary of the method: as §1
# [28] = target: Fuc(a1-2)[Gal(a1-3)]Gal(b1-4)[Fuc(a1-3)]GlcNAc(b1-3)GalNAc
# Summary of the method: as §1
# [29] = target: Fuc(a1-2)[Gal(a1-4)]Gal(b1-4)GlcNAc
# Summary of the method: as §1
# [30] = target: Fuc(a1-2)[GalNAc(a1-3)]Gal
# Summary of the method: as §1
# [31] = target: Fuc(a1-2)[GalNAc(a1-3)]Gal(b1-3)GalNAc(a1-3)[Fuc(a1-2)]Gal(b1-4)GlcNAc
# Summary of the method: as §1
# [32] = target: Fuc(a1-2)[GalNAc(a1-3)]Gal(b1-3)GalNAc(b1-3)Gal(a1-4)Gal(b1-4)Glc
# Summary of the method: as §1
# [33] = target: Fuc(a1-2)[GalNAc(a1-3)]Gal(b1-3)GlcNAc
# Summary of the method: as §1
# [34] = target: Fuc(a1-2)[GalNAc(a1-3)]Gal(b1-3)GlcNAc(b1-2)Man(a1-3)[Fuc(a1-2)[GalNAc(a1-3)]Gal(b1-3)GlcNAc(b1-2)Man(a1-6)]Man(b1-4)GlcNAc(b1-4)GlcNAc
# Summary of the method: as §1
# [35] = target: Fuc(a1-2)[GalNAc(a1-3)]Gal(b1-3)GlcNAc(b1-2)Man(a1-3)[Fuc(a1-2)[GalNAc(a1-3)]Gal(b1-3)GlcNAc(b1-2)Man(a1-6)]Man(b1-4)GlcNAc(b1-4)[Fuc(a1-6)]GlcNAc
# Summary of the method: as §1
# [36] = target: Fuc(a1-2)[GalNAc(a1-3)]Gal(b1-3)GlcNAc(b1-3)GalNAc
# Summary of the method: as §1
binder,measurement,setting,value
SP16663B-bot-321-25-321 (Bacteroides ovatus) (protein) DDDDEVTMNSKFYLSTKVFPVDSYEASLSVILKDNSVVVNELQPNYRFVACATERLSKDVKITADSDDNLVSAYNKANDTEYNILPAENYSFTNKTVTIENGESVSGDSIKIELLNVGSLTTEGGYLLPVTISSIEGNNLDALSSNRGVVYLKIQNIHVNVESGQPAEGTLIADRSGWTVKVAPTTRGDAKNLIDGTNSDVARDGGAEYWLTVDIGKVQTLTGIRNKCYASSYSPTAVEVFTSSDGAKWKSIGAVTISKSGTQYIKFSKAVETRYLKYYVKQGPNTVSLTEFDLYAK,glycan array binding signal (z-score),[1],-0.139
same,glycan array binding signal (z-score),[2],-0.394
same,glycan array binding signal (z-score),[3],-0.392
same,glycan array binding signal (z-score),[4],-0.007
same,glycan array binding signal (z-score),[5],0.682
same,glycan array binding signal (z-score),[6],-0.138
same,glycan array binding signal (z-score),[7],0.461
same,glycan array binding signal (z-score),[8],-0.561
same,glycan array binding signal (z-score),[9],-0.097
same,glycan array binding signal (z-score),Fuc(a1-2)Gal6S(b1-4)Glc,0.316
same,glycan array binding signal (z-score),[10],0.45
same,glycan array binding signal (z-score),Fuc(a1-2)[Gal(a1-3)]Gal,0.758
same,glycan array binding signal (z-score),[11],0.341
same,glycan array binding signal (z-score),[12],-0.892
same,glycan array binding signal (z-score),[13],-0.303
same,glycan array binding signal (z-score),[14],-0.105
same,glycan array binding signal (z-score),[15],-0.169
same,glycan array binding signal (z-score),[16],-0.725
same,glycan array binding signal (z-score),[17],-0.437
same,glycan array binding signal (z-score),[18],-0.354
same,glycan array binding signal (z-score),[19],-0.016
same,glycan array binding signal (z-score),[20],0.212
same,glycan array binding signal (z-score),[21],0.346
same,glycan array binding signal (z-score),[22],-0.33
same,glycan array binding signal (z-score),[23],-0.61
same,glycan array binding signal (z-score),[24],1.9
same,glycan array binding signal (z-score),[25],-0.309
same,glycan array binding signal (z-score),[26],-0.673
same,glycan array binding signal (z-score),[27],-0.06
same,glycan array binding signal (z-score),[28],-0.48
same,glycan array binding signal (z-score),[29],-0.238
same,glycan array binding signal (z-score),[30],0.321
same,glycan array binding signal (z-score),[31],-0.027
same,glycan array binding signal (z-score),[32],-0.296
same,glycan array binding signal (z-score),[33],0.071
same,glycan array binding signal (z-score),[34],-0.258
same,glycan array binding signal (z-score),[35],-0.366
same,glycan array binding signal (z-score),[36],0.547
